In the supplement of paper PMC10338343:
± gives the standard deviation. The entries are a selection whose mix differs from that of the whole data set.

Tested on: MIWI (PIWIL1) piRISC loaded with piRNA #1 (30 nt)
Assay: pre-steady-state target cleavage rate (min^-1); MIWI and MILI are mouse PIWI proteins and EfPiwi is from a freshwater sponge; tags in brackets are library labels; higher = faster piRNA-guided slicing of the target
Conditions: guide: piRNA #1 5'p-UGAGGUAGUAGGUUGUAUAGUAUCCAGAGG; auxiliary factor: 500 nM mouse GTSF1
How it was run: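 The method was Cleave-'n-Seq, in which uncleaved targets from a transcribed, DNA-blocked target RNA library were sequenced after exposure to active affinity-purified piRISC carrying one synthetic guide, with or without GTSF1 partner protein. Reactions contained 0.1 nM library, 1 nM piRISC and, where present, 500 nM GTSF1 in HEPES–potassium acetate buffer at 33 °C for 0–8 or 0–960 min. Reads were normalised to depth and to weakly complementary targets, three trials were pooled, and k3 was capped at 0.0001 min^-1. The pre-steady-state cleavage rate came from a burst-and-steady-state fit.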

Row | Sequence | pre-steady-state target cleavage rate
1 | CCUCUCGAAACUAUACAACCUACUACCUCA | 1.93 ± 0.1
2 | GGAGACGAUACUAUACAUCCUACUACCUGA | 0.738 ± 0.06
3 | GCUCUGGUUAGUAUACAACCUACUACCUCA | 1.3 ± 0.072
4 | GCUCUGGAUACUUAACAACCUACUACCUCA | 1.32 ± 0.093
5 | GGAGACCUAUGUAUUCAACCUACUACCUCA | 0.0065 ± 0.0016
6 | CCUCUGGUUACUAUACUACCUACUACCUCA | 1.58 ± 0.097
7 | GGAGACCUAACUAUACAACCUACUAACCUCA | 0.82 ± 0.063
8 | GGAGACCUAACUAUACAACCUACUUCCACA | 0.0872 ± 0.034
9 | GGAGUUGGAUACUAUACAACCUACUACCUCA | 1.55 ± 0.074
10 | GGAGACCAUAGAAUACAACCUACUACCUCA | 0.013 ± 0.004
11 | GGAGACCUUACUAUACAACCUAGUACCUCA | 0.44 ± 0.036
12 | GGUCUGGUUACUAUACAACGUACUACCUCA | 0.939 ± 0.054
13 | GGAGACGAUACUAUACAACCGACUACCUCA | 0.0129 ± 0.0025
14 | CCUCUGGAUACUAUAGAACGUACUACCUCA | 0.369 ± 0.041
15 | GGAGACCAUACUAUAGUUCCUACUACCUCA | 0.00917 ± 0.0016
16 | GCUCUGGUUACAAUACAACCUACUACCUCA | 1.98 ± 0.12
17 | GGAGACCUAUGGAUACAACCUACUACCUCA | 0.0817 ± 0.012
18 | GGAGACCAUACAAUACAACCUAGUACCUCA | 0.267 ± 0.035
19 | GGAGACGAUACUAUACAACCUACUACCCUCA | 0.895 ± 0.07
20 | GGAGACGAUACUAUAGAACCUACUACCUCA | 1.14 ± 0.066
21 | GGUCUGGAUACUAUACAACCUACUACCUUCA | 1.13 ± 0.083
22 | GCUCUGGAUAGCUAUACAACCUACUACCUCA | 0.739 ± 0.042
23 | GGAGAGGAUACUAUACAAUCUACUACCUCA | 0.34 ± 0.016
24 | GGACUGGAUAACUAUACAACCUACUACCUCA | 1.11 ± 0.087
